# Laboratory results as given in PubChem BioAssay AID493169 (National Center for Advancing Translational Sciences (NCATS), 2011).
# This list was built around the results that the source calls inconclusive (neither active nor inactive); the mix of calls is not that of the screen. Potencies beside an inconclusive call are fits to weak or partial responses and may not hold up. The source made the active and inactive calls. Calls follow the shape of the dose curve; as a rule, active = well fitted inhibition curve with a large enough effect; inconclusive = small, poorly fitted or top-dose-only effect; inactive = flat fitted curve, though single readings scatter.
# Test: CHOP2 Reporter Counterscreen Assay for Inhibitors of Ubiquitin-specific Protease USP2a;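 also: activated enterokinase alone at 50 pM in a cell-free format rather than USP2a or CHOP2; nearly all actives have a fitted effect of over 55% in size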
# Conditions: purified enterokinase, fluorogenic substrate, 485/531 nm; series mostly up to 38.3 µM
# Description: NIH Molecular Libraries Probe Centers Network [MLPCN] NIH Chemical Genomics Center [NCGC] MLPCN Grant: XO1-MH079852-01 PI Name: Nicholson, Ben. Progenra Inc, Malvern, PA NCGC Assay Overview: Homeostasis of cellular proteins is maintained through a combination of synthesis and degradation. The pathway that accounts for the majority of protein degradation is the ubiquitin-proteasomal pathway. Ubiquitin (Ub) is highly conserved in all cells and the generation of a multi-Ub chain typically targets proteins for degradation by the proteasome. However, ubiquitination is highly reversible and dynamic. Deubiquitination, the reverse process, is catalyzed through the action of enzymes referred to as isopeptidases or deubiquitinating enzymes (DUBs). This group of enzymes is collectively responsible for maintaining adequate pools of free ubiquitin and regulating the ubiquitination status of cellular proteins. The class of DUBs referred to as the ubiquitin-specific proteases (USP) family functions endoproteolytically to cleave Ub chains from a wide range of protein substrates. USP2a deubiquitinates fatty acid synthase (FASN) which has recently been identified as an emerging oncology target. To identify inhibitors of USP2a a cell-free assay was employed. This assay is a counterscreen against the reporter enzyme used to measure USP2a activity in the primary qHTS assay. The reporter enzyme is a protease (enterokinase, EK; EC 3.4.21.9), which is activated when a Ub sequence is cleaved by USP2a. The counterscreen assay is performed in the same buffer and conditions as the primary USP2a coupled assay but uses fully activated EK alone. The assay gives a fluorescent read-out at excitation/emission wavelengths of 485/531. The assay was provided by Progenra, Inc. and has been licensed for sale by LifeSensors, Inc.
# NCGC Assay Protocol: The assay buffer, prepared fresh at the day of the assay, contains 20mM Tris-HCl pH 8.0, 2mM CaCl2, 2mM beta-Mercaptoethanol, 0.05% CHAPS. 3uL of 100 pM EK (50 pM final) was dispensed into a medium-binding black solid Kalypsys 1,536 well plate using the Kalypsys dispenser. The assay plate was then pinned with 23nL compounds in DMSO with the Kalypsys pintool in columns 5-48 (0.3% final DMSO concentration). The negative control was buffer/DMSO only in column 3. The assay plate is incubated at RT for 30min. Subsequently, 3uL of reporter substrate (25nM final) were dispensed into the plate using the Kalypsys dispenser. Plates were read after 10 min at RT on a ViewLux (Perkin Elmer) plate reader using the following wavelengths: Ex 485nm /Em 531nm. Data were normalized to the AC100 inhibition (buffer alone). Concentration-response curves were fitted to the normalized data and the concentration-response curves were then classified based on curve quality (r2), response magnitude and degree of measured activity. The time zero reading was used to flag fluorescence artifacts.
# Potency is read from the fitted curve at half-maximal effect; tags tell the direction and shape of the fitted curve.
row,SMILES,Potency
1,O=c1[nH]c(=S)n(Cc2ccco2)c(O)c1C=NCc1cccs1,active: 8.91 µM
2,CCCCn1c(=O)c(C(=O)Nc2ccccc2S(N)(=O)=O)c(O)c2ccccc21,"inconclusive: 28.2 µM [inhibitor, single point]"
3,O=c1[nH]c(=O)n(Cc2ccc(F)cc2)c(O)c1C=NCCCn1ccnc1,inactive
4,CC1Oc2cc3c(-c4c(O)cc(O)c5c(O)c6c(cc45)OC(C)C(C)C6=O)c(O)cc(O)c3c(O)c2C(=O)C1C (centres undefined),"inconclusive: 11.2 µM [inhibitor, single point]"
5,O=C1NC(=O)N(Cc2ccco2)C(=O)/C1=C/c1cccn1CCOc1ccccc1Cl,"inconclusive: 28.2 µM [inhibitor, single point]"
6,Nc1ccc(S(=O)(=O)N2CCCCC2c2cccnc2)cc1 (centres undefined),inactive
7,O=C1NC(=O)N(Cc2ccco2)C(=O)/C1=C/C=C/c1ccco1,active: 8.91 µM
8,CC(=Nc1ccc2c(c1)CCC2)c1c(O)n(C)c(=O)n(C)c1=O,inactive
9,O=C(O)c1cccc2c1NC(C(=O)O)C1CC(Sc3ccccc3[N+](=O)[O-])C(Cl)C21 (centres undefined),active: 10 µM
